Measured values as given in the supplement of paper PMC12217912.
Some of the results follow. Sequences were assembled here from the parent chain. Inactive controls read about 0.05.

B1: TEV protease; numbered along this chain (parent)
chain: MGESLFKGPRDYNPISSSICHLTNESDGHTTSLYGIGFGPFIITNKHLFRRNNGTLVVQSLHGVFKVKDTTTLQQHLVDGRDMIIIRMPKDFPPFPQKLKFREPQREERICLVTTNFQTKSMSSMVSDTSCTFPSGDGIFWKHWIQTKDGQCGSPLVSTRDGFIVGIHSASNFTNTNNYFTSVPKNFMELLTNQEAQQWVSGWRLNADSVLWGGHKVFMVKPEEPFQPVKEATQL

Variants of: B1
Experiment: raw area under fraction-flipped curve 0-4 h after induction (AUC4h, not background-subtracted), DNA-recorder readout of cleavage of the substrate (dimensionless); higher = more cleavage of the substrate by the protease variant
Details: temperature: 34 °C; time window: 0-4 h after rhamnose induction
Description: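 In vivo DNA recorder in E. coli TOP10(DE3) ΔrhaA at 34 °C. Each TEVp single-site mutant (parent TEVp 0) is paired with a single-site variant of the 7-mer TEVs (canonical ENLYFQ|S). The substrate sits between flexible linkers in a Bxb1-sfGFP-TEVs-SsrA fusion, so cleavage stabilises Bxb1 and speeds flipping of a recombination array, read by NGS. The value is the raw area under the fraction-flipped curve over 0-4 h after rhamnose induction (AUC4h), with ≥20 reads per time point. It is not background-subtracted; inactive controls average about 0.047.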
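Also: Bxb1 expression induced with 0.2% (w/v) L-rhamnose at OD600 near 0.5, cultures sampled hourly, flipped fraction per protease–substrate barcode pair counted by paired-end Illumina sequencing.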

Row | Variant | area with substrate EALYFQS | area with substrate ECLYFQS | area with substrate EDLYFQS | area with substrate EELYFQS | area with substrate EFLYFQS | area with substrate EGLYFQS | area with substrate EILYFQS | area with substrate EKLYFQS | area with substrate ELLYFQS | area with substrate EPLYFQS | area with substrate EQLYFQS | area with substrate ERLYFQS | area with substrate ESLYFQS | area with substrate ETLYFQS | area with substrate EVLYFQS | area with substrate EWLYFQS | area with substrate EHLYFQS | area with substrate EMLYFQS | area with substrate EYLYFQS
1 | G2Q | 0.123 | 0.129 | 0.119 | 0.13 | 0.132 | 0.0983 | 0.0878 | 0.135 | 0.11 | 0.143 | 0.145 | 0.0889 | 0.115 | 0.11 | 0.0938 | 0.0826 |  |  | 
2 | E3G | 0.0561 | 0.066 | 0.0713 | 0.0744 | 0.0922 |  | 0.0648 | 0.0611 | 0.0646 |  | 0.0729 | 0.062 | 0.0633 |  | 0.0581 | 0.0642 | 0.0738 | 0.0736 | 0.0735
3 | E3P | 0.133 | 0.129 |  | 0.0913 |  | 0.0814 |  | 0.125 |  | 0.119 | 0.103 |  | 0.117 |  | 0.0906 | 0.113 | 0.144 |  | 0.105
4 | S4E | 0.148 | 0.119 | 0.136 |  |  | 0.124 | 0.103 | 0.112 | 0.116 | 0.136 | 0.129 | 0.126 |  | 0.134 | 0.0726 | 0.124 | 0.116 |  | 0.115
5 | S4K | 0.164 | 0.131 | 0.156 | 0.173 | 0.12 |  | 0.11 | 0.104 | 0.0973 |  | 0.128 |  | 0.133 | 0.142 | 0.121 | 0.143 | 0.148 |  | 0.136
6 | S4P | 0.105 | 0.108 | 0.13 | 0.156 | 0.0928 | 0.0817 | 0.0773 | 0.0681 | 0.0856 | 0.0982 |  | 0.0962 | 0.12 | 0.108 | 0.0937 |  |  | 0.113 | 0.146
7 | S4V | 0.0463 | 0.131 | 0.158 | 0.172 |  |  | 0.117 | 0.151 | 0.109 |  | 0.143 | 0.151 | 0.129 | 0.134 | 0.117 | 0.0019 |  | 0.171 | 
8 | L5Q | 0.135 | 0.115 | 0.165 |  | 0.122 | 0.157 | 0.105 | 0.141 | 0.089 | 0.118 |  | 0.121 | 0.109 |  | 0.105 | 0.111 | 0.133 | 0.133 | 0.0953
9 | K7A | 0.155 | 0.103 |  | 0.112 | 0.154 | 0.0988 | 0.112 | 0.107 |  |  | 0.117 |  | 0.0908 |  | 0.104 |  |  | 0.122 | 
10 | P9A | 0.123 | 0.0861 | 0.143 |  |  | 0.0797 |  | 0.0824 |  |  | 0.103 | 0.0963 |  |  | 0.0823 |  | 0.104 | 0.117 | 
11 | R10I | 0.0856 | 0.127 | 0.0896 | 0.121 |  |  | 0.0953 |  | 0.0763 | 0.109 | 0.0943 | 0.0743 | 0.105 |  | 0.0902 |  |  | 0.0671 | 0.0729
12 | R10L | 0.123 | 0.113 | 0.0953 | 0.107 |  | 0.0913 | 0.104 |  |  | 0.114 | 0.12 | 0.0877 | 0.102 |  | 0.0977 | 0.0998 |  | 0.102 | 0.119
13 | D11I | 0.0975 | 0.0961 | 0.0907 |  |  | 0.0417 | 0.0709 |  | 0.0814 | 0.114 | 0.0998 |  | 0.0943 |  |  | 0.115 |  | 0.0953 | 
14 | D11K | 0.0963 | 0.0965 | 0.116 | 0.112 |  | 0.136 | 0.116 | 0.0637 | 0.111 |  |  | 0.107 | 0.0882 | 0.11 | 0.076 |  | 0.168 | 0.0784 | 0.069
15 | D11R | 0.128 | 0.116 |  | 0.134 | 0.082 |  | 0.108 | 0.119 | 0.0875 | 0.13 | 0.132 | 0.107 | 0.123 |  | 0.104 | 0.109 |  | 0.123 | 
16 | Y12P | 0.102 | 0.0851 | 0.13 | 0.124 | 0.101 | 0.0631 |  | 0.1 | 0.105 | 0.107 | 0.107 |  | 0.111 | 0.0933 | 0.0873 |  | 0.09 | 0.104 | 0.108
17 | S18F | 0.115 | 0.096 |  | 0.0903 |  | 0.0901 | 0.0931 | 0.0965 | 0.108 | 0.0908 | 0.101 | 0.107 | 0.0902 | 0.0886 | 0.0702 |  | 0.0772 | 0.0914 | 0.0921
18 | S18P | 0.0958 | 0.056 |  | 0.0806 | 0.0912 | 0.0547 | 0.059 | 0.0927 | 0.0643 | 0.0983 | 0.0887 |  | 0.0599 | 0.0634 | 0.0789 | 0.0857 |  | 0.073 | 0.0667
19 | S18V | 0.127 | 0.0882 | 0.0958 | 0.118 |  | 0.0864 | 0.0856 | 0.125 | 0.0948 | 0.109 | 0.115 | 0.0782 | 0.101 | 0.11 | 0.0847 | 0.0994 |  |  | 0.0897
20 | S18Y | 0.0905 | 0.101 | 0.0664 |  |  |  | 0.0864 |  | 0.0963 | 0.105 | 0.103 | 0.0884 | 0.0943 | 0.108 | 0.104 | 0.093 |  | 0.0838 | 
21 | I19Q | 0.136 | 0.11 | 0.127 | 0.106 | 0.0987 | 0.0896 | 0.0994 | 0.0705 |  |  | 0.125 | 0.101 | 0.108 | 0.117 |  |  | 0.109 | 0.0937 | 
22 | I19T | 0.103 | 0.0999 | 0.108 |  |  | 0.114 | 0.0849 | 0.11 |  |  | 0.12 | 0.0941 | 0.0868 |  | 0.0644 |  |  |  | 0.0999
23 | C20A | 0.138 | 0.111 | 0.156 | 0.129 |  | 0.109 | 0.113 |  | 0.104 | 0.11 |  | 0.116 | 0.0928 |  | 0.121 | 0.0714 | 0.118 |  | 
24 | C20E | 0.0759 | 0.0417 | 0.039 |  | 0.0278 | 0.037 |  | 0.04 |  | 0.049 |  | 0.0394 | 0.055 |  | 0.0468 | 0.0432 | 0.0325 | 0.0413 | 0.0483
25 | H21K | 0.113 | 0.113 | 0.164 | 0.089 | 0.0946 | 0.0869 | 0.0856 | 0.0889 | 0.0883 | 0.128 |  | 0.0933 | 0.119 |  | 0.0948 | 0.121 | 0.113 | 0.0993 | 0.0795
